# Data taken from PubChem BioAssay AID1346428 (National Center for Advancing Translational Sciences (NCATS), 2018).
# Screen size: about 48,000 compounds; about 1,200 (2.5%) were called active. Inconclusive results (about 2%) are left out.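 How the source made its calls: active means activation of at least 60% and not above a set upper limit (about 1 call in 100 departs from these limits); inconclusive means activation of 40% to 60%, or above that upper limit; inactive means activation under 40%.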 The list shows a part of the results.
# Molecular target: Probable G-protein coupled receptor 32 (Homo sapiens) (UniProt O75388)
# Chain of UniProt O75388 (O75388 whole entry, looked up): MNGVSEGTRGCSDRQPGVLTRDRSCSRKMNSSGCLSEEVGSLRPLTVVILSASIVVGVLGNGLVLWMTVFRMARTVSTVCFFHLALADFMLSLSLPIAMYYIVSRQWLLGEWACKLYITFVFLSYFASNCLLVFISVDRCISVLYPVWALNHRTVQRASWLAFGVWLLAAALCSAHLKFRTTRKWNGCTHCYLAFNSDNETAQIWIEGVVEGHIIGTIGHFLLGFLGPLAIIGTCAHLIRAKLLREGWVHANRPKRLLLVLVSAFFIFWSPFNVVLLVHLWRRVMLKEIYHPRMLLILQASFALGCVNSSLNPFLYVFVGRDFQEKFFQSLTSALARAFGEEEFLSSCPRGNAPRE
# Assay: qHTS for Agonists of Human Resolvin D1 Receptor DRV1; further: 0% is about no effect
# Details: CHO-K1 GPR32 beta-arrestin PathHunter luminescence, 90 min; at 76.9 µM; hits give high values; zero percent set by DMSO-only wells
# Summary of the method: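 Agonism was scored as beta-arrestin recruitment to ProLink-fused GPR32 in stably transfected CHO-K1 cells, giving a chemiluminescent beta-Gal signal; compounds were incubated 90 min at 37 °C.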
row,SMILES,activation
1,CC(C)CCNC(=O)Cc1ccc(NC(=O)N2CCCCc3ccccc32)cc1,inactive: -6.28%
2,COc1ccc(CNC(=O)Cn2c(=O)nc(-c3ccccc3)c3ccccc32)cc1OC,inactive: -0.968%
3,CCCCC(=O)NC1CC(=O)N(c2ccc3c(c2)OCCO3)C1 (configuration not stated),inactive: -1.79%
4,O=C(NCCC1=CCCCC1)c1ccc2c(c1)N(Cc1cccc(Cl)c1)C(=O)c1ccccc1S2=O (configuration not stated),inactive: -21%
5,CCOc1cccc(C(c2c(C)n(C)n(-c3ccccc3)c2=O)c2c(C)n(C)n(-c3ccccc3)c2=O)c1OC,inactive: 0.149%
6,COc1ccc2cc(C=O)ccc2c1,inactive: -1.34%
7,CCOc1ccc(NC(=O)c2nn(C)c3c2CS(=O)(=O)c2ccccc2-3)cc1,inactive: 10.2%
8,COc1ccc(CCNC(=O)CCCn2c(=O)c3ccccc3n(CC(=O)Nc3cc(Cl)ccc3C)c2=O)cc1OC,inactive: 26.6%
9,CCOc1ccccc1NC(=O)Cn1c(=O)n(-c2ccc(F)cc2)c(=O)c2sc3ccccc3c21,inactive: 11.8%
10,Cc1ccc2nc(-c3cc(NC(=O)/C=C/c4ccccc4)ccc3Cl)oc2c1,inactive: -4.87%
11,O=C(Nc1cccc(OCc2cc(=O)n3c4c(sc3n2)CCCC4)c1)c1ccc(F)cc1,inactive: 22%
12,Cc1ccccc1-c1noc(CCC(=O)Nc2cccc(C)c2C)n1,inactive: -11%
13,COc1ccc(C(=O)Nc2ccc3nc(N4CCC(C)CC4)cc(C)c3c2)cc1,inactive: 26.3%
14,COc1cc(Cl)c(C)cc1NC(=O)c1cn(C2CCCC2)c(=O)c2c1c1ccccc1n2C,inactive: -2.92%
15,O=C(c1cccc(Cl)c1)N1CCN(CCc2ccncc2)CC1,inactive: 16.7%
16,CCOc1ccc(-c2nnc(SCC(=O)NCCc3ccc(OC)c(OC)c3)nc2-c2ccc(OCC)cc2)cc1,inactive: 3.31%
17,COc1ccc(Cl)cc1-n1c(/C=C/c2cccc3ccccc23)nc2ccccc2c1=O,inactive: -16.9%
18,COc1cc(C(=O)NS(=O)(=O)c2ccccc2C)ccc1Cc1cn(C)c2ccc(NC(=O)OC3CCCC3)cc12,inactive: 46%
19,CCOCCCNC(=O)C(Cc1ccccc1)NS(=O)(=O)c1ccc2c(c1)c(=O)n(C)c(=O)n2C (configuration not stated),inactive: -1.46%
20,COc1ccc(-c2nc(CSc3nncn4c3cc3occc34)c(C)o2)cc1,inactive: -19.2%
21,COc1cccc(Cn2c(CNC(=O)Cc3cccc(C)c3)nc3cccnc32)c1,inactive: -12.8%
22,Oc1ccc(/C=C/c2ccc(/C=C/c3ccc(O)cc3)c(Br)c2)cc1,inactive: -3.45%
23,Cc1ccc(NC(=O)c2cccc3c2C(=O)N(C2CCCCC2)C3)c(C)c1,inactive: -15.4%
24,COc1ccc(C2=C(C)C(=NCCCN3CCN(c4cc(C)ccc4C)CC3)NS2(=O)=O)cc1,inactive: 38%
25,COc1ccc(N(CC(=O)Nc2cccc(Cl)c2C)S(=O)(=O)c2c(C)nn(C)c2C)cc1,inactive: 0.51%
26,COc1ccccc1-c1nc2c(c(SCC(=O)Nc3ccc(C)c(C)c3)n1)Cc1c(CO)cnc(C)c1O2,inactive: -11.2%

row,SMILES,activation
1,Cc1ccccc1NC(=O)Cn1c(=O)oc2cc(Br)ccc21,inactive: 7.74%
2,O=C(c1cc2c(s1)-c1ccccc1OC2)N1CCN(c2ccccc2F)CC1,inactive: -12%
3,Cc1c(C)n(C)c2ccc(C(=O)NCCCN3CCCCC3C)cc12 (configuration not stated),inactive: -6.67%
4,CCOC(=O)C1CCCN(c2cc(C)nc3c(-c4ccccc4OC)c(C)nn23)C1 (configuration not stated),inactive: -18.8%
5,CCc1c(C)sc(NC(=O)c2cc(-c3cccc(Cl)c3)on2)c1C#N,inactive: -1.19%
6,CC1=C(C(=O)OC(C)C)C(c2cccc([N+](=O)[O-])c2)C(C(=O)OC2CN(C(c3ccccc3)c3ccccc3)C2)=C(N)N1 (configuration not stated),inactive: 6.13%
7,Cc1ccc(C)c(NC(=O)Cn2cc(C(=O)c3ccco3)c3ccccc32)c1,inactive: 3%
8,CCCCN(CC)CCCNC(=O)c1nn(C)c2c1CS(=O)(=O)c1ccccc1-2,inactive: 0.525%
9,CCCCCOc1c(Cl)cc(C(=O)N(Cc2ccc(C)o2)C2CCS(=O)(=O)C2)cc1Cl (configuration not stated),inactive: -29.3%
10,COc1ccc(C)c2sc(N(Cc3cccnc3)C(=O)C3CCCCC3)nc12,inactive: -10.6%
11,CCCN(CCC)CCCNC(=O)C1CCN(S(=O)(=O)CC)CC1,inactive: -6.32%
12,COc1ccc(C)cc1NC(=O)c1c(C)oc2ncn(CC(C)C)c(=O)c12,inactive: -24.2%
13,CCCn1cc(S(=O)(=O)c2ccccc2)c(=O)c2cc(F)c(N3CCCC(C)C3)cc21 (configuration not stated),inactive: -9.69%
14,CCOC(=O)c1ccc(N2C(=O)c3n[nH]c(-c4ccco4)c3C2c2ccc(O)cc2)cc1 (configuration not stated),inactive: 33.5%
15,CCOC(=O)Cn1c(=O)n(C2CCCCC2)c2nc(-c3cccc(F)c3)nc(C(N)=O)c21,inactive: -2.27%
16,Cc1cc(C2CCCCC2)n(O)c(=O)c1,active: 77.3%
17,CC1=C(C(=O)Nc2ccccc2)C(c2cccnc2)n2nc(SCc3ccccc3Cl)nc2N1 (configuration not stated),inactive: -2.84%
18,Cc1ccc(S(=O)(=O)CC(=O)Nc2sc3c(c2C#N)CCCC3)cc1,inactive: 13.3%
19,CCn1cc(CCC(=O)NCc2ccccc2OC)c2ccccc21,inactive: -24.4%
20,Cc1ccc(CSCC(=O)N2CCN(c3ccccc3F)CC2)cc1,inactive: -22.4%
21,Cc1ccc(S(=O)(=O)c2cc3cc(C(=O)O)ccc3oc2=O)cc1,inactive: -1.27%
22,CCN[C@@H]1C[C@H](N)[C@@H](OC2OC(CN)=CCC2N)[C@H](O)[C@H]1O[C@H]1OC[C@](C)(O)[C@H](NC)[C@H]1O (some centres not stated),inactive: 8.07%
23,Cc1ccc(C)c(CN2C(=O)c3ccccc3S(=O)(=O)c3ccc(C(=O)N4CCN(c5ccccc5)CC4)cc32)c1,inactive: -9.55%
24,COc1ccc(NC(=O)c2sc3nc(-c4ccc(OC)cc4)cc(C(F)(F)F)c3c2N)cc1,inactive: 0.683%
25,C#CCSc1nc2sc3c(c2c(=O)n1Cc1ccccc1)CCCC3,inactive: 7.01%
26,COc1ccccc1OCCSc1nc2ccccc2n1CC(=O)N1CCOCC1,inactive: -7.38%
